Measurements as given in the supplement of paper PMC4967469.

Key:
[1] = compound: C=CCc1cccc(/C=N/NC(=O)CN2CCN(Cc3ccccc3)CC2)c1O [PAC-1]; test: Viability of human cancer cell lines after 72 h of drug (GDSC screen); conditions: top dose 2.56 µM
Procedure: (§1)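 Human cancer cell lines in 384-well plates, medium with 10% serum, drug for 72 h over a 256-fold dose range (nine 2-fold or five 4-fold steps up to the top dose). Adherent lines were fixed and stained with the nucleic acid dye Syto60, suspension lines read with resazurin; signal relative to control wells, capped at 0 and 100%. One two-parameter sigmoid per drug and line, fitted in a mixed model over all curves with the slope shared within a line.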

[2] = compound: NC(=O)[C@@H](CCC(F)(F)F)N(Cc1ccc(-c2ncon2)cc1F)S(=O)(=O)c1ccc(Cl)cc1 [BMS-708163]; test: as above; conditions: top dose 5 µM; screen: GDSC drug entry 1072; top dose inferred
Procedure: as §1

Cell Line	AUC [1]	IC50 [1] [nM]	AUC [2]	IC50 [2] [nM]
BICR22 (head and neck, adherent)	0.978	> 2560	0.981	> 5000
BICR78 (head and neck, adherent)	0.983	> 2560	0.918	> 5000
BPH-1 (prostate, adherent)	0.969	> 2560	0.933	> 5000
BT-20 (breast, adherent)	0.98	> 2560	0.944	> 5000
BT-483 (breast, adherent)	0.952	> 2560	0.976	> 5000
BxPC-3 (pancreas, adherent)	0.845	2190	0.95	> 5000
C3A (liver, adherent)	0.976	> 2560	0.981	> 5000
C32 (melanoma, adherent)	0.986	> 2560	0.975	> 5000
C-4-I (cervix, adherent)	0.975	> 2560	0.979	> 5000
C-33-A (cervix, adherent)	0.97	> 2560	0.983	> 5000
CAKI-1 (kidney, adherent)	0.88	> 2560	0.943	> 5000
CAL-12T (non-small cell lung carcinoma, adherent)	0.983	> 2560	0.893	> 5000
CAL-27 (head and neck, adherent)	0.978	> 2560	0.94	> 5000
CAL-29 (bladder, adherent)	0.955	> 2560	0.973	> 5000
CAL-33 (head and neck, adherent)	0.984	> 2560	0.964	> 5000
CAL-39 (cervix, adherent)	0.973	> 2560	0.958	> 5000
CAL-51 (breast, adherent)	0.907	> 2560	0.987	> 5000
CAL-54 (kidney, adherent)	0.794	1380	0.941	> 5000
CAL-62 (thyroid, adherent)	0.987	> 2560	0.95	> 5000
CAL-72 (osteosarcoma, adherent)	0.966	> 2560	0.983	> 5000
CAL-78 (chondrosarcoma, adherent)	0.983	> 2560	0.984	> 5000
CAL-85-1 (breast, adherent)	0.929	> 2560	0.953	> 5000
CAL-120 (breast, adherent)	0.97	> 2560	0.98	> 5000
CAMA-1 (breast, adherent)	0.802	1650	0.972	> 5000
CAPAN-1 (pancreas, adherent)	0.936	> 2560	0.833	3750

Cell Line	AUC [1]	IC50 [1] [nM]	AUC [2]	IC50 [2] [nM]
CCF-STTG1 (glioma, adherent)	0.964	> 2560	0.988	> 5000
CCK-81 (large intestine, adherent)	0.923	> 2560	0.986	> 5000
CHL-1 (melanoma, adherent)	0.959	> 2560	0.987	> 5000
CHP-212 (neuroblastoma, adherent)	0.987	> 2560	0.957	> 5000
CHSA0011 (chondrosarcoma, adherent)	0.977	> 2560	0.98	> 5000
CHSA0108 (chondrosarcoma, adherent)	0.816	1710	0.984	> 5000
CHSA8926 (chondrosarcoma, adherent)	0.911	> 2560	0.964	> 5000
COLO-205 (large intestine, suspension)	0.852	1940	0.985	> 5000
COLO-678 (large intestine, semi-adherent)	0.978	> 2560	0.983	> 5000
COLO-679 (melanoma, adherent)	0.74	857	0.971	> 5000
COLO-680N (oesophagus, adherent)	0.895	> 2560	0.975	> 5000
COLO-783 (melanoma, adherent)	0.967	> 2560	0.988	> 5000
COR-L23 (large cell lung carcinoma, adherent)	0.944	> 2560	0.914	> 5000
COR-L105 (lung adenocarcinoma, adherent)	0.861	> 2560	0.857	> 5000
CP50-MEL-B (melanoma, adherent)	0.982	> 2560	0.988	> 5000
CS1 (bone, adherent)	0.96	> 2560	0.926	> 5000
Ca9-22 (head and neck, adherent)	0.981	> 2560	0.935	> 5000
Ca-Ski (cervix, adherent)	0.934	> 2560	0.959	> 5000
CaR-1 (large intestine, adherent)	0.978	> 2560	0.906	> 5000
Calu-3 (lung adenocarcinoma, adherent)	0.799	1610	0.936	> 5000
Caov-4 (ovary, adherent)	0.887	> 2560	0.942	> 5000
Capan-2 (pancreas, adherent)	0.879	> 2560	0.972	> 5000
ChaGo-K-1 (non-small cell lung carcinoma, adherent)	0.934	> 2560	0.985	> 5000
DAN-G (pancreas, adherent)	0.991	> 2560	0.992	> 5000

IC50 is the fitted dose that halves viability relative to control wells, and lower means more sensitive; where the fit passes the top or lowest dose, that dose stands as a limit. AUC, from the same fit, is the share of area under the viability curve across the 256-fold dose range; it is 1 without any effect and falls as sensitivity rises. For some of these results: A top dose marked as inferred was calculated from the reported fits. For some of these results: Drugs with an entry number were screened twice under separate entries, and the two screens often disagree.
